In article PMC12136788 one finds binding signal data, which are given here for 14 molecules.

First the molecules themselves.
B1: chr17:2570287:2570288:+_ENSG00000007168_ENST00000397195|hu_hu|motif|central (ssRNA)
RNA: GGGAGUUCUACAGUCCGACGAUCCUGACCAAGAGGUCCACCUGACGUAAAUUCUUCUUUUGCUUCAUUUAGCUUUGAUUCGGAUUCCAUAACCUUCUUUUGUAAUCUAAUAACAGAUGUCCAUUUUUUUUCCAAAAGACCAGCCAACAGAGGAUUGAGCAUCA
B2: chr2:216981417:216981418:+_ENSG00000079246_ENST00000392132|hu_hu|FALSE|FALSE (ssRNA)
RNA: GGGAGUUCUACAGUCCGACGAUCCUGAUACUGAUCCCCACCAGAAAGGGGAUUGUCAGUGCCAUCUGUACCAAACAGGACUAAAGCAAUCUCAUCCUUGUUCUCAGCAAACACCUGUCGCUGUACAAACAUGGUUAUCACCUUCAACAGAGGAUUGAGCAUCA
B3: chr12:48362563:48362564:+_ENSG00000134291_ENST00000256686|hu_hu|hu_hu_hu_mus_False|1_78 (ssRNA)
RNA: GGGAGUUCUACAGUCCGACGAUCUCCGUCAAGCCCUUCGAUAGACCCUUGCGGGGGUGGUAAAAACCACUUUGUAUGGGGAAGGAAAAGAAACGCCAAAAACUUUCCAAAAAGCGGGGGUGGGGUGAGGCGGGAGGUUGGGAACAACAGAGGAUUGAGCAUCA
B4: chr13:110848956:110848957:-_ENSMUSG00000021700_ENSMUST00000167824|mus_hu|FALSE|FALSE (ssRNA)
RNA: GGGAGUUCUACAGUCCGACGAUCAGGUACCAACACCAAAGCUCUUGGAAGAAUCGAUUUGGAACAGUUCAGGUUUAUUCCUAAGGGUAUCUAGAGGAGUGAAAGUGGUCAGGUAAUGAGUAGCAAAGGAAAAUAAAUUCAUACCAACAGAGGAUUGAGCAUCA
B5: chr2:202488911:202488912:-_ENSG00000155755_ENST00000286196|hu_mus|hu_hu_hu_mus_False|18_28 (ssRNA)
RNA: GGGAGUUCUACAGUCCGACGAUCAUUGAAACAUUUUUCAUAAUCUCCAGUAGCAUUUCAGCAUUAUGUAACAAAAGCUCAAUUGUAAAUACAUGUAUCUUAUAAAAAUAAAAAUACAUUUAAAAACGGGGAGCGCAGGCGCCACAACAGAGGAUUGAGCAUCA
B6: chr21:38862523:38862524:+_ENSG00000157540_ENST00000338785|hu_mus|FALSE|FALSE (ssRNA)
RNA: GGGAGUUCUACAGUCCGACGAUCUCGGAAGUUGGUGUUUCUCAACAAAUCAUAGAGAUUAUAGGACAGCAUUUCAAACACUAAACAGAGAUGGUUUCGAAACAUAAAGUGGCGUUUCAAAUGCACUAUGUAGUACUUCAUUUCCAACAGAGGAUUGAGCAUCA
B7: chr19:16212804:16212805:+_ENSG00000167460_ENST00000300933|hu_mus|hu_hu_hu_mus_False|1_48 (ssRNA)
RNA: GGGAGUUCUACAGUCCGACGAUCAACAAUUCUGGAGUGAAGGAAAGAUGUAACAUGGAACAGCAUUAAAGCUCAGUCAGAAGGCACGUGGGUAAUUAUGAUCACCCCAGCAUUCUCGCUUGGAAUGCUUAAAGACAGAUGUUUCAACAGAGGAUUGAGCAUCA
B8: chr16:8843179:8843180:+_ENSMUSG00000022507_ENSMUST00000023150|mus_mus|FALSE|FALSE (ssRNA)
RNA: GGGAGUUCUACAGUCCGACGAUCUGGGGGAGCUCUAGAGUUUCGUGGUGGAGGAACCUUUCCACACAGGAAGCUGAUCAAAUCUUCUCUACGAAUAGUUCUUCUGCGCUUUUUUACCCAGGCCAGCACAUCCUUAUUGCGUCGCAACAGAGGAUUGAGCAUCA
B9: chr3:152055631:152055632:+_ENSMUSG00000025437_ENSMUST00000117492|mus_hu|motif|central (ssRNA)
RNA: GGGAGUUCUACAGUCCGACGAUCAGAGUCAGGGUGAUUUAGGACAAUGAAAAAGUUUUCAAAGCAAAAGUAUUUACAACACGGCAAAGGAUACUAUGGAUCUGCAUGUAGUGUAAAGAUUAAAGAUAACCUACUGAUUUCACACAACAGAGGAUUGAGCAUCA
B10: chr16:18284709:18284710:-_ENSMUSG00000022718_ENSMUST00000009321|mus_mus|FALSE|FALSE (ssRNA)
RNA: GGGAGUUCUACAGUCCGACGAUCAACCACUGCCUCAAUUAUUGGAAAUCACAAUGCACUCAGCUUAAAAGAUUGACGUCUAAGUGAGUCUAUCUUCAUGCCAAAGUGGCACCUUUCUUCUUCCACCUGUGGCGCCCGCGACCUCAACAGAGGAUUGAGCAUCA
B11: 187351112_187360007_290_CDS_ENSG00000065548_ENST00000337859|human|control|control (ssRNA)
RNA: GGGAGUUCUACAGUCCGACGAUCCUUCUGUUGCUUUGCUCCUUUCUUAUUCUUCAAACCGAAAGUUUUGUCUUCGAUAAUCUUCUCCUUCUUUUUUUGCUCCGCCUUUUUGCUGCCCCCGGCCUGAGCCUGUUUCUUGGGGGGCAACAGAGGAUUGAGCAUCA
B12: chr4:101300647:101300648:+_ENSMUSG00000028528_ENSMUST00000094953|mus_mus|FALSE|FALSE (ssRNA)
RNA: GGGAGUUCUACAGUCCGACGAUCGGUGCCAUGUGAUGAGCCUGUCGGGCUGGUGGCAGCGGAUUUGCUCCCCAUUCCAAAACCUCCUGGUUUGGUGUGCCAGUCCCAACCUCCAGCAAUGUCGGGCUGGAUGUUCACAGCAGGCAACAGAGGAUUGAGCAUCA
B13: chr13:49821539:49821540:+_ENSMUSG00000037851_ENSMUST00000165316|mus_hu|FALSE|FALSE (ssRNA)
RNA: GGGAGUUCUACAGUCCGACGAUCUUCCCGAGCCAUUCCUUCAUCUACCAUUGACUGGUCAGGAGUGACAUCUAAGAGGACCAAAGCCUGAGCAUCUGAGUGUGCUUCAAAUUGCGCAGUCCCACCUGUGGCCUGAUCAAAGGUCAACAGAGGAUUGAGCAUCA
B14: 61749448_61749568_4601_CDS_ENSG00000171316_ENST00000423902|human|control|control (ssRNA)
RNA: GGGAGUUCUACAGUCCGACGAUCGAGGUCAUUUUGGGGAUUCCAGUCUGAAUCAAAGAUGAUGCAGGUAUCAGCAGCAGUGAGGUUAAUGCCUAAACCUCCUGCCCUUGUACACAGGAGGAAAACAAACCUAUCAGAAUCAGGCAACAGAGGAUUGAGCAUCA

This is one part of the list.

The test concerns the target T1, UNK ZnF1-3 (human, UniProt Q9C0B0 31-174).
T1 sequence: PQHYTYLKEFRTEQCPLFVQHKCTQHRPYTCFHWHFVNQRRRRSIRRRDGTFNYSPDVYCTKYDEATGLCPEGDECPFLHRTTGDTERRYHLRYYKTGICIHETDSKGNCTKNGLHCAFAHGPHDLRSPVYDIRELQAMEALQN
Briefly: nsRBNS (natural sequence RNA bind-n-seq); RBNS binding buffer (assumed for nsRBNS): 25 mM Tris pH 7.5, 150 mM KCl, 3 mM MgCl2, 0.01% Triton X-100, 500 ug/ml BSA, 20 U/ml SUPERase-In, 4 C; UNK is unkempt and MSI1 is Musashi-1; names of the RNAs are library labels; protein concentration not given here; high values mean tight binding.
On to B1, for which the binding signal was 1.03 enrichment R.

For the molecule B2, the binding signal was 0.791 enrichment R.

In turn, B3 showed a binding signal of 1.91 enrichment R.

In turn, B4 registered a binding signal of 2.07 enrichment R.

B5 displayed a binding signal of 1.41 enrichment R.

As to B6, the binding signal is 0.866 enrichment R.

On to B7, for which the binding signal amounted to 1.28 enrichment R.

Regarding B8, the binding signal was found to be 0.785 enrichment R.

The molecule B9 returned a binding signal of 1.02 enrichment R.

B10 yielded a binding signal of 1.11 enrichment R.

With B11, the binding signal is 0.432 enrichment R.

On to B12, for which the binding signal stood at 0.809 enrichment R.

For the molecule B13, the binding signal amounted to 0.679 enrichment R.

On to B14, for which the binding signal amounted to 1.23 enrichment R.
